Laboratory results as given in PMC6919601, “Identification of Plasmodium dipeptidyl aminopeptidase allosteric inhibitors by high throughput screening” (PLoS ONE, 2019).
Values joined by “and” are separate entries in the source; they are usually repeats but may differ in a detail not shown here. Equal values may be shown once. Out of some 110,000 compounds screened, about 230 (0.21%) showed an effect of 50% or more. The list shows a part of the results.

molecular target: DPAP1 (Plasmodium falciparum, UniProt Q8IIJ9); assay: primary screen, percent inhibition; read by cleavage of a fluorogenic dipeptide substrate; higher = more effect of the substance; set-up: species or system P. falciparum D10 trophozoite lysates; single well
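Further: 30 min substrate incubation versus DMSO and 10 µM JCP410 controls.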

Chain of DPAP1 (Q8IIJ9 whole entry, looked up): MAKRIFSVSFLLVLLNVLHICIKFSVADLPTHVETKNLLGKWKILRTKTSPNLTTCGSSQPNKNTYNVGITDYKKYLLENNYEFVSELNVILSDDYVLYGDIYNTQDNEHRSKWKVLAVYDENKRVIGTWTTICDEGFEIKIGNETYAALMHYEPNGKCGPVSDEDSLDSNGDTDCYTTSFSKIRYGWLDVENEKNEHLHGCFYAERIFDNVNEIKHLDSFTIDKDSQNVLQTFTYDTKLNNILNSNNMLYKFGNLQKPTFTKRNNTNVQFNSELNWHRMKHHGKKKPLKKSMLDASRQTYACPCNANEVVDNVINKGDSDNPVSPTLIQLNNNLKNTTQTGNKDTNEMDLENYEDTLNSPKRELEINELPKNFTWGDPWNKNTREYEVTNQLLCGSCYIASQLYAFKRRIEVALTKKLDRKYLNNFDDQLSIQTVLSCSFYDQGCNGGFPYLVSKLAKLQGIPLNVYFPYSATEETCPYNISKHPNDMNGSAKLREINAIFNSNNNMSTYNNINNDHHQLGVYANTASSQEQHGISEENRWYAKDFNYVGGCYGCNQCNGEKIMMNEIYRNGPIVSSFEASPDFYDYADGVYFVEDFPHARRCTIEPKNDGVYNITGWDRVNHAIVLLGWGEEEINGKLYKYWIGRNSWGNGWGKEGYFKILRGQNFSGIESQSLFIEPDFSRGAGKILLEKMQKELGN

SMILES | % Inhibition @ 10 uM
CCc1cc2c(cc3c(=O)n(CC(=O)NCCc4ccc(OC)c(OC)c4)nc(CC)n32)s1 | 3.29%
COc1ccc(C2C(C(=O)c3cc4ccccc4o3)=C(O)C(=O)N2CCCN2CCOCC2)cc1 (centres unmarked) | -7.1%
O=C(CCc1nc2ccccc2[nH]1)NCCc1ccc(Cl)cc1 | -0.999%
O=C(COc1ccc(Cl)cc1)N1CCCCC1 | 4.54%
COc1ccc(C2C(C#N)=C(N)Oc3c2c(=O)oc2ccccc32)c(OC)c1 (centres unmarked) | 2.31%
Cn1c(=O)c2c(n3ncnc13)NC(=O)CC2c1ccccc1F (centres unmarked) | -1.05%
Cc1cc(C)cc(NC(=O)C23CCC(C)(C(=O)C2=O)C3(C)C)c1 (centres unmarked) | 14.3%
CN1C(=O)C(=Cc2ccc(-c3ccccc3)o2)C(=O)N(C)C1=O | 2.26%
CCc1c(C)c2ccc3c(c2oc1=O)CN(c1ccccn1)CO3 | 2.65%
Cc1ccc(C(C)C)c(OCC(=O)Nc2ccc(Cl)cc2)c1 | 1.27%
COc1ccccc1-c1ccc(/C=C2\N=C(c3ccccc3)OC2=O)o1 | 9.39%
Cc1cccc(N2CCN(Cc3c(C)[nH]c4ccccc34)CC2)c1C | -2.56%
O=C(NCCc1ccccc1)c1ccc2oc(=O)c(S(=O)(=O)c3ccccc3)cc2c1 | -1.3%
O=C(Nc1ccc(S(=O)(=O)N2CCCCC2)cc1)c1ccco1 | -4.43%
Cc1nc([N+](=O)[O-])cn1-c1ccc(N)cc1 | -7.98%
O=C(c1nn2c(C(F)(F)F)cc(-c3ccccc3)nc2c1Cl)N1CCCc2ccccc21 | 3.32%
CCn1c(NCc2ccccn2)nc2ccccc21 | 3.48%
CN(C)CCCN(CCCN(C)C)CC1CCCCC1 | -0.0494%
CCCNC(=S)N1CC2(C)CN(C(=O)C(=O)OC)CC(C)(C1)C2=O | 4.66%
O=C(CSc1ccc(-c2cccs2)nn1)NCC1CCCO1 (centres unmarked) | -5.57%
Cc1cc(O)nc(SCCOc2ccc(Cl)cc2)n1 | 4.98%
CC(C)CNC(=O)CCc1nc(-c2ccc(Cl)cc2)no1 | 3.62%
Fc1ccc(N2CCN(Cc3c(F)cccc3Cl)CC2)cc1 | 0.472%
CC(C)CN(CC(C)C)S(=O)(=O)c1ccccc1[N+](=O)[O-] | 2.6%
COc1ccc(NS(=O)(=O)c2ccc(NC(=O)c3cccc(C)c3)cc2)cc1 | 3.35%

SMILES | % Inhibition @ 10 uM
CCCCSC1=C(C#N)C(c2ccccc2OC)C(C#N)C(=O)N1 (centres unmarked) | 3.06%
O=C(NCc1ccccc1)c1cccc(S(=O)(=O)N2CCCCCC2)c1 | 0.812%
O=C(Nc1ccc(Cl)cn1)C(c1ccccc1)c1ccccc1 | 1.76%
Cc1sc(N)c(C(N)=O)c1-c1ccc(C(C)C)cc1 | 0.121% and 1.19%
CC(=O)N[C@@H](CCc1ccccc1)C(=O)N[C@@H](CC(C)C)C(=O)N[C@H](Cc1ccccc1)C(=O)N[C@H](/C=C/S(C)(=O)=O)CC(C)C | -4.82%
O=C(/C=C/c1ccccc1Cl)Nc1ccccc1Cl | 1.83%
COc1ccc(/C=C2\N=C(c3ccc(Cl)c(Cl)c3)OC2=O)cc1 | -5.99%
CC(C)CCNC(=O)c1nn(C)c2c1CS(=O)(=O)c1ccccc1-2 | 2.58%
COc1cccc(OC)c1C(=O)N1CCN(C(=O)c2ccccc2F)CC1 | 2.93%
Cc1ccc(S(=O)(=O)CCSc2cccc(C(=O)Nc3ccccc3)c2)cc1 | -3.55%
CC(Nc1nc(N2CCN(CCO)CC2)nc2ccccc12)c1ccccc1 (centres unmarked) | -10.8%
C=CCn1c(SCCCc2ccccc2)nc2c1c(=O)n(C)c(=O)n2C | 3.05%
CCOc1ccc(C2(c3ccccc3OC)CCCC2)cc1 | -3.32%
CCOC(=O)c1cnc(SCc2nc(-c3ccc(Cl)cc3)oc2C)nc1N | 1.27%
COc1ccc(C(=O)n2nc3c(c2-c2ccc(OC)cc2)COC(C)(C)C3)cc1 | 3.59%
O=C(c1ccccc1Cl)N1N=C(c2ccccc2)CC1c1nc2ccccc2[nH]1 (centres unmarked) | 1.24%
CCCCc1nnc2sc(NC(=O)c3ccccc3)nn12 | -3.51%
O=c1c(Oc2ccc(-c3ccccc3)cc2)coc2cc(O)ccc12 | -5.49%
CC(=O)ON1C(=O)C2C3c4ccccc4C(c4ccccc43)C2C1=O (centres unmarked) | 38.9%
N/C(=N\OCc1cccc(C(F)(F)F)c1)c1nonc1N | 13.6%
c1ccc(Nc2nc(-c3ccncc3)cs2)cc1 | -4.98%
O=C(CSc1nnc(-c2ccccc2)c(-c2ccccc2)n1)Nc1nccs1 | -2.81%
CN(c1ccccc1)S(=O)(=O)c1ccc(Cl)c(C(=O)Nc2cccc(O)c2)c1 | -5.41%
Cc1ccc(OCc2ccc(C(=O)Nc3ncc(Br)s3)o2)cc1C | 3.72%
O=C(O)CCCN1C(=O)C2C3CC(C2C1=O)C1C(c2ccc(O)cc2)c2sc(O)nc2SC31 (centres unmarked) | -7.27%

SMILES | % Inhibition @ 10 uM
Cc1c(Cl)cccc1-n1nc(C)c2c(C)cc(=O)n(CC(=O)NCc3ccco3)c21 | 1.11%
CC(=O)c1ccc(N2CCN(Cc3ccc(C(=O)O)cc3)CC2)cc1 | 2.26%
O=C(NCc1ccco1)c1ccc(NS(=O)(=O)c2cccc(F)c2)cc1 | 0.214%
CCOc1ccc(Cl)cc1S(=O)(=O)Nc1ccncc1 | -4.26%
Fc1ccc(Cc2nnc(Cc3ccccc3)o2)cc1 | 3.51%
COc1cc(NC(=O)/C(=C/c2ccco2)NC(=O)c2ccc(C)c(C)c2)cc(OC)c1 | 8.68%
CCc1nnc(NC(=O)CSc2nccn2C)s1 | 1.13%
Clc1cccc(CNC2CCN(CCc3ccccc3)CC2)c1 | -4.75%
CC(C)CCn1c(CN2CCCCC2C)nc2c1c(=O)n(C)c(=O)n2C (centres unmarked) | -1.43%
COc1ccc(CN2C(=O)CN(C3CCCCCC3)C(=O)C2c2ccc(OC(C)C)c(OC)c2)cc1 (centres unmarked) | 2.79%
O=C(c1ccncc1)N1CCN(Cc2cccc3ccccc23)CC1 | 3.95%
COc1ccc(CCNc2nc(Cl)nc(N3CC4CC(C3)c3cccc(=O)n3C4)n2)cc1OC (centres unmarked) | 2.7%
CC(=O)Nc1ccc(NC(=O)[C@@H]2C3C=CC(C3)[C@@H]2C(=O)O)cc1 (some centres unmarked) | 2.38%
O=C(O)c1cccc(COc2cc(Cl)ccc2Cl)c1 | -4.05%
Cc1nc2ccc(C(=O)Nc3ccc(N(C)C)cc3)cc2s1 | -2.09%
COCCNc1cc(C)nc2c(-c3ccc(Cl)cc3)c(C)nn12 | 5.47%
COc1ccc(C(=O)Cn2c3ccccc3n3nc(-c4ccccc4)nc23)cc1OC | -7.38%
COC(=O)C1=C(C)N(C)C(=O)NC1c1ccc(OC)cc1 (centres unmarked) | -0.13%
O=C(O)CCC1=NN2C=Nc3sc4c(c3C2NC1=O)CCCC4 (centres unmarked) | -7.35%
CCCc1n[nH]c(SCc2cc(=O)n3nc(C)sc3n2)n1 | -3.57%
Cc1ccccc1Cn1c(C)c(CNCCc2cccs2)c(C(=O)O)c1C | -3.67%
Cc1cc(Br)cc(C)c1NC(=O)C1CCCN1C(=O)c1cccs1 (centres unmarked) | -3.75%
CCC(Cc1ccccc1)NC(=O)C1CCN(c2nn3c(=O)cc(C)nc3s2)CC1 (centres unmarked) | 4.55%
COc1ccc(CN2CCSCC2)cc1OC | 4.57%
CCOC(=O)N1CCN(C(=O)CN(Cc2ccc(Cl)cc2)S(=O)(=O)c2ccccc2)CC1 | 0.291%

SMILES | % Inhibition @ 10 uM
O=C(NCCc1ccccc1)C(=O)c1c(-c2ccccc2)[nH]c2ccccc12 | -4.49%
CCCc1c(C)nc2c(OC)cccc2c1Cl | -3.09%
O=S1(=O)CC(O)C(S(=O)(=O)c2ccccc2)C1 (centres unmarked) | -2.66%
CCOC(=O)N1CCC(NC(=O)c2ccc(CS(=O)(=O)c3c(Cl)cccc3Cl)o2)CC1 | -4.96%
CC1(C)CC2=Nc3ccccc3NC(c3ccc(Cl)cc3)C2=C(O)C1 (centres unmarked) | -1.05%
Nc1cc(-c2ccccc2)nn1S(=O)(=O)c1cccc2nsnc12 | -9.6%
O=c1ccc2cc(S(=O)(=O)N3CCOCC3)ccc2o1 | 1.72%
O=C(c1scc2c1CCCC2)N1CCN(c2nc3ccccc3o2)CC1 | -1.98%
O=C1NC(=O)N(c2ccc(Br)cc2)C(=O)/C1=C/C=C/c1ccccc1 | -0.712%
CC(C)(C)c1ccc(S(=O)(=O)N2CCc3nc4ccccc4c(C(=O)O)c3C2)cc1 | 2.05%
Cc1ccc(C(=O)Nc2ccc(C#N)cc2)cc1 | 5.25%
CCOc1ccc(/C=C2\CCc3cc(OC)ccc3C2=O)cc1 | -1.31%
COCCNC(=O)c1cnn2c(C)c(Cc3cc(C)ccc3C)c(C)nc12 | -2.14%
COc1ccc(-c2onc(C)c2C)cc1S(=O)(=O)NCC1CCN(Cc2ccc(C)cc2)CC1 | -3.42%
CC(=O)OC(C#CCN1CCCC1)c1ccccc1 (centres unmarked) | 0.177%
COc1ccc(CN2CCN(Cc3c[nH]c4ccccc34)CC2)cc1OC | -5.29%
CC[C@@H](C)[C@H](NC(=O)c1cccc(N)c1)C(=O)N[C@@H](CCc1ccccc1)C(=O)COCc1ccccc1 | -7.36%
Cc1ccc(-n2nc3c(N4CCC(C(=O)NCC5CCCO5)CC4)nnc(C)c3c2C)cc1 (centres unmarked) | 3.74%
C=CCSc1nc(=O)c(CC)c(O)n1CC=C | -2.6%
COc1cc(C(=S)N2CCOCC2)ccc1O | -2.18%
Cc1ccc(S(=O)(=O)Nc2ccc3[nH]c(-c4cccn4C)nc3c2)cc1 | 2.5%
CCc1nnc(SCc2nc(-c3ccc(OC)cc3)oc2C)c2cc3occc3n12 | 0.616%
Cc1nc2c3ccccc3nc(SCc3cccc(C(F)(F)F)c3)n2n1 | 0.0592%
